B1: hu3G7-D816 (conjugate)
heavy: EVQLVQSGAEVKKPGASVKISCKASGYTFTNYGMHWVRQAPGQGLEWMGWINTYTGEPTYAQKFQGRFTFTLDTSTSTAYLEIRSLRSDDTAVYYCARYYGNFDYWGQGTLLTVSSASTKGPSVFPLAPSSKSTSGGTAALGCLVKDYFPEPVTVCWNSGALTSGVHTFPAVLQSSGLYSLSSVVTVPSSSLGTQTYICNVNHKPSNTKVDKKV[human IgG1 Fc cut from this listing]
light: EIVMTQSPATLSVSPGERATLSCRASQSISNNLHWYQQKPGQAPRLLIYYASQSISGIPARFSGSGSGTEFTLTISSLQSEDFAVYYCQQSHNWPHTFGQGTKLEIKRTVAAPSVFIFPPSDEQLKSGTASVVCLLNNFYPREAKVQWKVDNALQSGNSQESVTEQDSKDSTYSLSSTLTLSKADYEKHKVYACEVTHQGLSSPVTKSFNRGEC
B2: hu3G7-D818 (conjugate)
heavy: B1 heavy
light: B1 light

System: HL-60 cells, EOL1 cells and SK-MEL-5 cells (IL1RAP expressing)
Assay: Target dependent cytotoxicity of anti-IL1RAP 3G7-(IQB-CBI) ADCs
Type: cell-based, human
Settings: HL-60, EOL1, SK-MEL-5 cells; varying concentrations, 37° C., five days; compared with non-binding control ADC
Experimental: The selectivity of ADCs comprising Chi3G7 anti-IL1RAP chimeric antibody (human constant domain, mouse variable domain) and various IQB-CBI dimer linker-payloads (D816, D818, D820, D822, D826, D824, D828) is shown in FIGS. 17-23. HL-60 cells, EOL1 cells and SK-MEL-5 cells (human melanoma cell line) were treated with the IL1RAP -selective cytotoxic antibody-drug conjugate, Chi3G7-(IQB-CBI) ADC and the control antibody-drug conjugate, C0-(IQB-CBI) ADC or C0-D212 ADC, at varying concentrations at 37° C. for five days.
Cytotoxicity of Chi3G7-CLT-(IQB-CBI) or Hu3G7-CLT-(IQB-CBI) ADC and a non-binding control ADC were tested in cell lines expressing or not expressing IL1RAP. EOL1 cells express high copy number of IL1RAP, whereas HL60 and SK-MEL-5 cells express low copy number of IL1RAP.

| Molecule | target dependent cell killing |
| --- | --- |
| B1 | target dependent cell killing |
| B2 | target dependent cell killing |

Source: US10350218B2, “Isoquinolidinobenzodiazepine (IQB)-1(chloromethyl)-2,3-dihydro-1H-benzo[e]indole (CBI) dimers” (priority 2016, dated 2019)
